# Results taken from the RNAGym collection of RNA variant scans (doi:10.7554/elife.90254).
# The source gives no read counts; variants with many changes may rest on few reads.
# B1: LINE1-mini (parent)
# chain: GGCAGAGCUCAACACAGCGUGGCAAAGUGGCUGUGGCUAGACUGCC
# Variants of: B1
# Experiment: self-cleavage, relative activity (ratio to wild type); higher = more cleavage; in vitro, sequencing; the parent is a self-cleaving ribozyme
row,Variant,self-cleavage
1,U28G G29U G33U U38A,0.02
2,A14C C23G A39C,0.07
3,G5C A11C A24U,0.01
4,U9C A11U G36U C46A,0.01
5,G21C C23A C42U,0.39
6,A4C C10A A24U G29U G35A C45U,0.01
7,A14G G22U C23A G27U U43A C46A,0.13
8,G1U C3G A11U C18A G22A U34A G44C,0.01
9,C10A G17C G22U,0.06
10,G1A U9C G17A,0.06
11,C10G A16G G21U,0.04
12,G1C A4G U9G A24G,0.02
13,C3A A11U C13A U43A,0.02
14,A16G C18G G35A C37U,0.05
15,U9G G21A G44U,0.04
16,A11G G17A G35A,0.02
17,G7U U9C A16U U20C G33A,0.02
18,C8U G22U G29U,0.16
19,G17A G36C C42U C46A,0.01
20,A14C C18G G21C G33C,0.02
21,G1U G5U A6U C8A G33C,0.15

row,Variant,self-cleavage
1,G2C A16G C18U U43A G44U C45U,0
2,G7C C10G G17U C18U G19A G33C A39G,0.03
3,G1U G7A G19U G29C,0.11
4,A6G C15U G29U,0.47
5,G7A G21C C42A,0.07
6,C15G C31U C45G,0.02
7,G7U C8G A16G A26U,0.06
8,G7U A16G G22A A26G C31G,0.04
9,G2C U32C C46U,0.13
10,U9G G19U U32A,0.03
11,G2U A4C U9G G17A,0.03
12,G7A C18G G30A,0.56
13,G1A C10G G19A G21A C31U,0.3
14,A11G A25U G33U,0.02
15,G5A C23G G44U,0.12
16,C3U C10A A24C U28C,0.01
17,G2C C15A G19C G40U,0.01
18,G1C G21A C42G C45A,0
19,C3A A11G A41G,0.07
20,G2A C8A G29C C31A,0.4
21,G21C G22C G40C,0.05

row,Variant,self-cleavage
1,A4U G29U G30A A41C,0.08
2,A6G C15A A16C C42G,0.02
3,C15U G17A G33U U34C G36A A39U C45U,0.01
4,G2U U9G A14G U20G,0.04
5,C18U G19C A25U C42G G44C C45A,0
6,C8U G22U C31G C37A,0.04
7,A16C G21U G29C G30C,0.01
8,A4G G30U C31G U34G U43G,0.01
9,A4U C13A G19A C23A,0
10,U9C A16U G40A,0.02
11,G19C G22C G29A G33U,0.05
12,C3A C15U C42A,0.24
13,G5U C8A U9C,0.1
14,G1A C15U G40C,0.06
15,G1C U9A U20G C31U G35C A41U,0
16,G1A C8G G17C C45U,0.04
17,A6U C10A C15G G21U U38A C42U,0.03
18,A11U G17C C42A,0.02
19,U9C C18U G19A G21U A25G G29U C31U,0
20,U32G U34C G36C,0.06
21,A12U G27U G35A,0.19

row,Variant,self-cleavage
1,G2A C23A A24C,0.98
2,G5C C8U A14C G17C G21C A25G G30U,0.22
3,G5U C37U U43C,0.01
4,C13U A14U G21A A41G,0.23
5,G2U C8A U34G,0.01
6,G30C G40A A41U C45G,0.1
7,C10G C15A C18A G27U,0.02
8,A25C A41C C42A C46A,0
9,G7A G19A C23A,0.06
10,G1A G5A A11U A39G,0.04
11,G2C C3A C8U C10A C45G,0.04
12,C15U G22A C42G,0.13
13,G7C U34G A41G,0.01
14,G7U C13A G21U C37A C42U,0.05
15,A6U C10U U20C,0.12
16,G5U C18A G27C G40A,0.07
17,G2A A4C G29U,0.17
18,U28G U43C G44A,0.01
19,A11G G19A G40U C42U,0.01
20,A4G G7U C8A A12C C45A,0.21
